# Experimental data: PubChem BioAssay AID651820 (National Center for Advancing Translational Sciences (NCATS), 2012)
# About 12,000 (3.5%) of roughly 340,000 compounds were called active. This list was built around the results that the source calls inconclusive (neither active nor inactive); the mix of calls is not that of the screen. Calls come from the whole dose curve; as a rule, active = well fitted inhibition curve with a large enough effect; inconclusive = small, poorly fitted or top-dose-only effect, or another doubt; inactive = no such curve, though single readings can be large or run the other way. Potencies of inconclusive entries are left out as doubtful fits.
# Experiment: qHTS Assay for Inhibitors of Hepatitis C Virus (HCV)
# Conditions: Huh7.5.1 HCVcc-Cre (HCVcc is cell-culture hepatitis C virus) infection, luciferase reporter, 44 h; activity change, negative = inhibition: at 41.8 µM (top of the series)
# In short: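 Infectious HCV cell culture screen: compound-treated cells (1,000/well, pre-plated 4 h) are infected with HCVcc-Cre at roughly 0.5 moi and grown 44 h. Infection is quantified by luciferase signal after 15 min substrate incubation at room temperature.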
# % is set by controls: 0 for no effect and ±100 for the full control effect; potency is the fitted concentration of half-maximal effect; tags give direction and shape of the fitted curve.
Compound,"activity change, negative = inhibition",Potency
COc1ccccc1-c1cc2nc(C)cc(C)n2n1,inactive: 10.8%,
COc1ccc(NS(=O)(=O)c2cccc(C(=O)NCC(c3ccc(OC)cc3)N3CCCC3)c2)cc1 (stereo not given),inactive: -25.2%,
CC(C)CNc1nc2c(c(=O)n(C)c(=O)n2C)n1Cc1cccc(Br)c1,inactive: 7.85%,
COc1ccccc1NC(=O)Cn1nc(-c2ccncc2)nc1SCC(=O)NC1CCCC1,,"inconclusive [inhibitor, full curve]"
CCc1cc2c(=O)c(-c3nc4ccccc4n3C)coc2c(CN2CCCC(C)C2)c1O (stereo not given),inactive: 19.3%,
C/C=C\C(=O)Nc1cccc(C2=NOC3(C2)C[C@@H](C(N)=O)N(C(=O)c2ccc(OC)cc2)C3)c1 (stereo not given in full),inactive: 6.62%,
O=C(NCc1ccccc1)c1ccc(CS(=O)Cc2ccc(Cl)cc2)o1 (stereo not given),,"inconclusive [inhibitor, single point]"
CCOC(=O)CNC(=O)CSc1nc(-c2ccc(OC)cc2)ns1,,"inconclusive [inhibitor, single point]"
CCCCSC1=N/C(=C/c2ccsc2)C(=O)N1c1ccccc1,,"inconclusive [inhibitor, single point]"
Cc1c(C(=O)Nc2ccc(F)cc2)oc2ccc(S(=O)(=O)N3CCC4(CC3)OCCO4)cc12,,active: 4.47 µM
CCC/C(O)=C1\C(=O)CCCC1=NCCc1ccc(OCC)c(OCC)c1,,"inconclusive [inhibitor, full curve]"
Cc1cc(N2CCN(C)CC2)ccc1NC(=O)c1c2c(nc3ccccc13)CCN(Cc1ccccc1)C2,,active: 2 µM
CC(c1nc2ccccc2c(=O)[nH]1)N1CCCN(S(=O)(=O)c2ccc(F)cc2)CC1 (stereo not given),,"inconclusive [inhibitor, single point]"
CN(CC(=O)Nc1c(Cl)cccc1Cl)C(=O)c1cccc(-n2cccc2)c1,,"inconclusive [inhibitor, single point]"
CCc1nnc(NC(=O)CSc2nccn2-c2cccc(C)c2C)s1,,"inconclusive [inhibitor, partial curve]"
CCCCN1C(=O)C2Cc3c([nH]c4ccccc34)CN2C1=S (stereo not given),,"inconclusive [inhibitor, single point]"
O=C1c2ccccc2C(Nc2ccc3c(c2)OCO3)N1Cc1ccco1 (stereo not given),inactive: -16.8%,
CC(=NNC(=S)N1CCN(c2ccccn2)CC1)c1ccccn1,,"inconclusive [inhibitor, single point]"
COc1ccc(-c2cc(N)n(S(=O)(=O)c3ccc(F)cc3)n2)cc1OC,,active: 10 µM
CCOc1ccc(NC(=O)Nc2cc(-c3ccccc3)sc2C(=O)OC)cc1,,"inconclusive [inhibitor, partial curve]"
